# From the supplement of paper PMC8728848
# Some of the results follow.
# B1: Cohesin-hDECTIN-1 (Homo sapiens) (protein)
# chain: LDITSHHHHHHDDLDAVRIKVDTVNAKPGDTVRIPVRFSGIPSKGIANCDFVYSYDPNVLEIIEIEPGDIIVDPNPDKSFDTAVYPDRKIIVFLFAEDSGTGAYAITKDGVFATIVAKVKEGAPNGLSVIKFVEVGGFANNDLVEQKTQFFDGGVNVGDTTEPATPTTPVTTPTTTDDLDAASSSPCPPNWIIYEKSCYLFSMSLNSWDGSKRQCWQLGSNLLKIDSSNELGFIVKQVSSQPDNSFWIGLSRPQTEVPWLWEDGSTFSSNLFQIRTTATQENPSPNCVWIHVSVIYDQLCSVPSYSICEKKFM
# Assays:
# Test in all cases: glycan array binding signal (z-score within array); higher = stronger binding
# Conditions in all cases: glycan notation: IUPAC condensed, linker removed
# [1] = molecular target: Gal(a1-3)Gal(b1-3)GlcNAc
# Outline: (§1)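 Negative Z-scores can be read as non-binding. The Z-score is calculated within each array and then averaged across arrays of one protein sequence at different concentrations or buffers and across linkers. Arrays, 3228 in all, were curated from the Consortium for Functional Glycomics database and kept only where the protein sequence was available.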
# [2] = molecular target: Gal(a1-3)Gal(b1-3)GlcNAc(b1-2)Man
# Outline: as §1
# [3] = molecular target: Gal(a1-3)Gal(b1-3)GlcNAc(b1-2)Man(a1-3)[Gal(a1-3)Gal(b1-3)GlcNAc(b1-2)Man(a1-6)]Man(b1-4)GlcNAc(b1-4)GlcNAc
# Outline: as §1
# [4] = molecular target: Gal(a1-3)Gal(b1-3)GlcNAc(b1-3)GalNAc
# Outline: as §1
# [5] = molecular target: Gal(a1-3)Gal(b1-3)GlcNAc(b1-6)GalNAc
# Outline: as §1
# [6] = molecular target: Gal(a1-3)Gal(b1-3)[Fuc(a1-4)]GlcNAc(b1-2)Man(a1-3)[Gal(a1-3)Gal(b1-3)[Fuc(a1-4)]GlcNAc(b1-2)Man(a1-6)]Man(b1-4)GlcNAc(b1-4)GlcNAc
# Outline: as §1
# [7] = molecular target: Gal(a1-3)Gal(b1-4)Glc
# Outline: as §1
# [8] = molecular target: Gal(a1-3)Gal(b1-4)GlcNAc
# Outline: as §1
# [9] = molecular target: Gal(a1-3)Gal(b1-4)GlcNAc(b1-2)Man
# Outline: as §1
# [10] = molecular target: Gal(a1-3)Gal(b1-4)GlcNAc(b1-2)Man(a1-3)[Gal(a1-3)Gal(b1-4)GlcNAc(b1-2)Man(a1-6)]Man(b1-4)GlcNAc(b1-4)GlcNAc
# Outline: as §1
# [11] = molecular target: Gal(a1-3)Gal(b1-4)GlcNAc(b1-3)GalNAc
# Outline: as §1
# [12] = molecular target: Gal(a1-3)Gal(b1-4)GlcNAc(b1-6)GalNAc
# Outline: as §1
# [13] = molecular target: Gal(a1-3)Gal(b1-4)[Fuc(a1-3)]GlcNAc
# Outline: as §1
# [14] = molecular target: Gal(a1-3)Gal(b1-4)[Fuc(a1-3)]GlcNAc(b1-2)Man(a1-3)[Gal(a1-3)Gal(b1-4)[Fuc(a1-3)]GlcNAc(b1-2)Man(a1-6)]Man(b1-4)GlcNAc(b1-4)GlcNAc
# Outline: as §1
# [15] = molecular target: Gal(a1-3)GalNAc
# Outline: as §1
# [16] = molecular target: Gal(a1-3)[Gal(a1-4)]Gal(b1-4)GlcNAc
# Outline: as §1
# [17] = molecular target: Gal(a1-4)Gal(b1-3)GlcNAc(b1-2)Man(a1-3)[Gal(a1-4)Gal(b1-3)GlcNAc(b1-2)Man(a1-6)]Man(b1-4)GlcNAc(b1-4)GlcNAc
# Outline: as §1
# [18] = molecular target: Gal(a1-4)Gal(b1-4)Glc
# Outline: as §1
# [19] = molecular target: Gal(a1-4)Gal(b1-4)GlcNAc
# Outline: as §1
# [20] = molecular target: Gal(a1-4)Gal(b1-4)GlcNAc(b1-2)Man(a1-3)[Gal(a1-4)Gal(b1-4)GlcNAc(b1-2)Man(a1-6)]Man(b1-4)GlcNAc(b1-4)GlcNAc
# Outline: as §1
# [21] = molecular target: Gal(a1-4)Gal(b1-4)GlcNAc(b1-3)Gal(b1-4)Glc
# Outline: as §1
# [22] = molecular target: Gal(a1-4)GlcNAc
# Outline: as §1
# [23] = molecular target: Gal(a1-6)Glc
# Outline: as §1
# [24] = molecular target: Gal(b1-2)Gal
# Outline: as §1
# [25] = molecular target: Gal(b1-3)Gal
# Outline: as §1
# [26] = molecular target: Gal(b1-3)Gal(b1-4)GlcNAc
# Outline: as §1
# [27] = molecular target: Gal(b1-3)GalNAc
# Outline: as §1
# [28] = molecular target: Gal(b1-3)GalNAc(a1-3)[Fuc(a1-2)]Gal(b1-4)Glc
# Outline: as §1
# [29] = molecular target: Gal(b1-3)GalNAc(a1-3)[Fuc(a1-2)]Gal(b1-4)GlcNAc
# Outline: as §1
# [30] = molecular target: Gal(b1-3)GalNAc(b1-3)Gal
# Outline: as §1
# [31] = molecular target: Gal(b1-3)GalNAc(b1-3)Gal(a1-4)Gal(b1-4)Glc
# Outline: as §1
# [32] = molecular target: Gal(b1-3)GalNAc(b1-4)Gal(b1-4)Glc
# Outline: as §1
# [33] = molecular target: Gal(b1-3)GalNAc(b1-4)[Neu5Ac(a2-3)]Gal(b1-4)Glc
# Outline: as §1
# [34] = molecular target: Gal(b1-3)GlcNAc
# Outline: as §1
# [35] = molecular target: Gal(b1-3)GlcNAc(a1-3)Gal(b1-4)GlcNAc
# Outline: as §1
# [36] = molecular target: Gal(b1-3)GlcNAc(a1-6)Gal(b1-4)GlcNAc
# Outline: as §1
# [37] = molecular target: Gal(b1-3)GlcNAc(b1-2)Man
# Outline: as §1
# [38] = molecular target: Gal(b1-3)GlcNAc(b1-2)Man(a1-3)[Gal(b1-3)GlcNAc(b1-2)Man(a1-6)]Man(b1-4)GlcNAc(b1-4)GlcNAc
# Outline: as §1
binder,measurement,setting,value
B1,glycan array binding signal (z-score),[1],4.04
same,glycan array binding signal (z-score),[2],-0.585
same,glycan array binding signal (z-score),[3],0.993
same,glycan array binding signal (z-score),[4],-0.327
same,glycan array binding signal (z-score),[5],7.58
same,glycan array binding signal (z-score),[6],-0.29
same,glycan array binding signal (z-score),[7],-0.437
same,glycan array binding signal (z-score),[8],-0.267
same,glycan array binding signal (z-score),[9],0.129
same,glycan array binding signal (z-score),[10],0.386
same,glycan array binding signal (z-score),[11],-0.373
same,glycan array binding signal (z-score),[12],5.86
same,glycan array binding signal (z-score),[13],-0.334
same,glycan array binding signal (z-score),[14],0.021
same,glycan array binding signal (z-score),[15],-0.531
same,glycan array binding signal (z-score),[16],-0.425
same,glycan array binding signal (z-score),[17],-0.209
same,glycan array binding signal (z-score),[18],-0.217
same,glycan array binding signal (z-score),[19],-0.392
same,glycan array binding signal (z-score),[20],-0.363
same,glycan array binding signal (z-score),[21],-0.344
same,glycan array binding signal (z-score),[22],0.417
same,glycan array binding signal (z-score),[23],0.922
same,glycan array binding signal (z-score),[24],0.385
same,glycan array binding signal (z-score),[25],-0.474
same,glycan array binding signal (z-score),[26],-0.493
same,glycan array binding signal (z-score),[27],-0.336
same,glycan array binding signal (z-score),[28],-0.171
same,glycan array binding signal (z-score),[29],-0.395
same,glycan array binding signal (z-score),[30],-0.475
same,glycan array binding signal (z-score),[31],0.075
same,glycan array binding signal (z-score),[32],-0.439
same,glycan array binding signal (z-score),[33],-0.371
same,glycan array binding signal (z-score),[34],-0.169
same,glycan array binding signal (z-score),[35],-0.517
same,glycan array binding signal (z-score),[36],0.072
same,glycan array binding signal (z-score),[37],-0.46
same,glycan array binding signal (z-score),[38],-0.51
